# Source: PubChem BioAssay AID686979 (National Center for Advancing Translational Sciences (NCATS), 2013)
# Values joined by “and” are separate entries in the source; they are usually repeats but may differ in a detail not shown here. Identical values can stand only once. Out of some 420,000 compounds screened, about 50,000 (12%) were called active. Inconclusive means that the source gave no clear call. Such entries were picked first, then a sample of the others. The call rests on the fitted dose curve; in most records, active means well fitted inhibition curve with a large enough effect; inconclusive means small, poorly fitted or top-dose-only effect; inactive means flat fitted curve, though single readings scatter. Potencies of inconclusive entries are left out as doubtful fits.
# Assay: qHTS for Inhibitors of human tyrosyl-DNA phosphodiesterase 1 (TDP1): qHTS in cells in presence of CPT; further: nearly all actives have a fitted effect of over 55% in size
# Details: chicken DT40 Tdp1-/-;hTDP1 cells + 20 nM CPT, ATP luminescence, 48 h; series mostly up to 46.2 µM
# In short: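 Chicken DT40 Tdp1-/- cells complemented with human TDP1, 400 cells/well, exposed to compounds plus 20 nM camptothecin for at least 48 h at 37 C; viability read as ATP content by CellTiter-Glo luminescence.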
# Potency means the concentration at half of the fitted maximal effect; tags describe the fitted curve by direction and shape.
row,SMILES,Potency
1,Cc1ccc(NC(=O)CSc2nccn2C2CCCC2)cc1Cl,"inconclusive [inhibitor, single point]"
2,CN1OC[C@@H]2CN(S(=O)(=O)c3ccccc3)[C@H](c3ccc(N4CCCCC4)cc3)C[C@@H]21,"inconclusive [inhibitor, single point]"
3,CCCOc1ccc(CNC(=O)C2CCN(C(=O)N3CCOc4ccccc43)CC2)cc1,active: 20.6 µM
4,CCCCCCCCCC(=O)N[C@@H]1c2cc(OC)c(OC)cc2C[C@H]1O,"inconclusive [inhibitor, partial curve]"
5,O=C(CSCc1cnn(-c2ccccc2)c1-n1cccc1)N1CCN(Cc2ccccc2)CC1,"inconclusive [inhibitor, single point]"
6,Cc1ccc(CN2CCC(C)(Oc3cccc(Cl)c3)C2)cc1 (configuration not stated),active: 29.1 µM
7,COC(=O)C1=C(C)N(Cc2ccccc2)C(=NCc2ccc(OC)cc2)N[C@H]1c1ccccc1,active: 7.31 µM
8,NNC(=S)NC1CCCCCCCCCCC1,"inconclusive [inhibitor, single point]"
9,COc1ccc(OC)c2c(N3CCN(C)CC3)cc(C(F)(F)F)nc12,inactive
10,Brc1ccc(C2Nc3cccc4cccc(c34)N2)cc1,"inconclusive [inhibitor, partial curve, poor fit]"
11,Cc1ccc(/C=C/C(=O)Nc2cccc3cccnc23)o1,active: 11.6 µM
12,CC1(C)CC(=O)C(C(=O)/C=C/c2ccco2)C(=O)C1,active: 14.6 µM
13,COCCn1c(=O)[nH]c2cc(C(=O)N3CCN(c4cccc(C)c4C)CC3)ccc2c1=O,active: 14.6 µM
14,O=C(COc1ccc(Br)cc1)NNC(=O)c1ccc(-n2cncn2)c([N+](=O)[O-])c1,"inconclusive [inhibitor, single point]"
15,Cc1ccc(S(=O)(=O)N(CC(=O)NCCSc2ccc(Cl)cc2)c2cccc(Cl)c2)cc1,"inconclusive [inhibitor, single point]"
16,COc1ccc(NC(=S)NC(=O)/C=C/c2ccccc2)cc1,"inconclusive [inhibitor, single point]"
17,CCOc1ccc(CCNC(=O)c2nnn(CC(=O)Nc3ccc(C)cc3)c2N)cc1OCC,inactive
18,CCc1ccc2oc(-c3cc(NC(=O)COc4ccc(C)cc4)ccc3O)nc2c1,"inconclusive [inhibitor, single point]"
19,O=C1Nc2cc(C(=O)NCCCN3CCOCC3)ccc2S/C1=C/c1cccc(Cl)c1,"inconclusive [inhibitor, single point]"
20,Cc1ccc(NC(=O)Cn2nc(C(=O)O)c3ccccc3c2=O)cc1S(=O)(=O)N1CCOCC1,inactive
21,CCC(C)NC(=O)c1cnn(-c2cccc(F)c2)c1-n1cccc1 (configuration not stated),active: 20.6 µM
22,CC(=O)n1cc(N(C(=O)CCl)c2ccc(Cl)cc2)c2ccccc21,active: 1.46 µM
23,COc1cccc(CNC(=O)C2CCC(CNS(=O)(=O)c3cccc4nsnc34)CC2)c1 (configuration not stated),"inconclusive [inhibitor, single point]"

row,SMILES,Potency
1,COc1ccc(CC(=O)N(C)Cc2cccc(OC)c2OC)cc1S(=O)(=O)N1CCOCC1,"inconclusive [inhibitor, single point]"
2,COc1ccc(N2CCN(C(c3ccc(F)cc3)c3sc4nc(-c5ccco5)nn4c3O)CC2)cc1 (configuration not stated),inactive
3,CCc1nc2c(OCc3ccc(F)cc3)cccn2c1N(C)C(=O)COc1ccccc1,active: 20.6 µM
4,O=C(c1ccccn1)N(Cc1ccco1)C1(C(=O)NC2CCCCC2)CCCCC1,"inconclusive [inhibitor, single point]"
5,CCc1ccccc1N(C(=O)Cn1nnc2ccccc21)C(C(=O)NCCOC)c1ccco1 (configuration not stated),"inconclusive [inhibitor, single point]"
6,Cc1cccc(C)c1NC(=O)c1ccc(OCc2c(C)noc2C)cc1,"inconclusive [inhibitor, single point]"
7,CN(C(=O)CSc1ccncc1)C1CCCN(Cc2ccccc2F)C1 (configuration not stated),inactive
8,Cc1ccccc1N=Cc1cc2c(cc1O)OC(N)=C(C#N)C2c1ccccc1 (configuration not stated),"inconclusive [inhibitor, single point]"
9,Cn1c(=O)c2c(nc(NCc3cccnc3)n2Cc2ccc(Cl)cc2)n(C)c1=O,"inconclusive [inhibitor, partial curve, poor fit]"
10,CC(=O)Nc1ccc(NC(=O)C(Cc2ccccc2)NC(=O)C2CCCCC2)cc1 (configuration not stated),inactive
11,NC(=O)/C(=N\OC(=O)c1ccco1)c1nc(-c2ccc(Br)cc2)cs1,"inconclusive [inhibitor, partial curve]"
12,CCN(CC)CC#CCC(C)(c1ccccc1)c1ccccc1,"inconclusive [inhibitor, single point]"
13,Cc1ccc(NC(=O)COc2ccc(Cl)cc2Cl)cc1S(=O)(=O)N1CCOCC1,"inconclusive [inhibitor, single point]"
14,Cc1ccc(NC(=O)NC(=O)c2ccccc2)cc1F,inactive
15,CCN(CC)c1ccc(/C=N/NC(=O)CNC(=O)/C=C/c2ccco2)cc1,"inconclusive [inhibitor, single point]"
16,CCCC(=O)Nc1ccc2nc(SCC(=O)N3CCOCC3)sc2c1,"inconclusive [inhibitor, single point]"
17,COc1cc(F)ccc1-c1cc(C(=O)NCc2ccc(C(F)(F)F)cc2)[nH]n1,"inconclusive [inhibitor, single point]"
18,COc1cccc(N2CCN(CC(=O)NC3=Nc4ccccc4N=C(C)C3c3ccccc3)CC2)c1 (configuration not stated),"inconclusive [inhibitor, partial curve]"
19,N#CC1=C(N)Oc2cc(N)ccc2C1c1ccccc1Cl (configuration not stated),"inconclusive [inhibitor, single point]"
20,CC(C)(C)OC(=O)NCCCC[C@H](NC(=O)c1nc[nH]c1C(=O)N1CCN(C(=O)OC(C)(C)C)CC1)C(=O)OC(C)(C)C,"inconclusive [inhibitor, single point]"
21,COCn1c(-c2cccc(Br)c2)nc2ccccc21,"inconclusive [inhibitor, single point]"
22,CCC(=O)N1CCc2cc(S(=O)(=O)CCC(=O)NCCc3ccccc3)ccc21,inactive
23,CCn1cc(C(=O)NCC2CCCO2)c(=O)c2cc(S(=O)(=O)N3CCCCC3)ccc21 (configuration not stated),"inconclusive [inhibitor, partial curve, poor fit]"

row,SMILES,Potency
1,COc1cc(NC(=O)CSc2ncnc3sc4c(c23)CCC(C)C4)c(C(=O)O)cc1OC (configuration not stated),inactive
2,Cc1ccc(SCc2ccc(C(=O)NCc3cccnc3)cc2)cc1,"inconclusive [inhibitor, single point]"
3,Cc1cc(CSc2nc(C)cc(=O)[nH]2)c2ncccc2c1,"inconclusive [inhibitor, single point]"
4,O=C(COC(=O)c1ccccc1F)Nc1ccc(S(=O)(=O)N2CCOCC2)cc1,inactive
5,CCN(C(=O)CSc1nnc(-c2c[nH]c3ccccc23)o1)C1CCS(=O)(=O)C1 (configuration not stated),inactive
6,Cc1cc(C)n(Cc2ccc(Cl)c(Cl)c2)c(=O)c1S(=O)(=O)c1ccccc1,"inconclusive [inhibitor, full curve]"
7,O=C(CNc1cc(S(=O)(=O)N2CCOCC2)ccc1NCC1CCCO1)Nc1ccc(F)c(F)c1 (configuration not stated),"inconclusive [inhibitor, partial curve]"
8,O=C(N/N=C/c1ccc(OC(=O)c2cccs2)cc1)c1ccccn1,inactive
9,CCC1Sc2ccc(S(=O)(=O)CCC(=O)NCc3ccco3)cc2NC1=O (configuration not stated),"inconclusive [inhibitor, single point]"
10,CCc1ccc2c(c1)c(N=NC1=NC(=O)CS1)c(O)n2CC,"inconclusive [inhibitor, partial curve]"
11,O=C(CONS(=O)(=O)c1ccc(Cl)cc1)NCCNc1ncc(C(F)(F)F)cc1Cl,inactive
12,N#C/C(=C\c1ccc(-c2cccc(Cl)c2)o1)C(=O)Nc1cccc(C(F)(F)F)c1,"inconclusive [inhibitor, single point]"
13,CC(=O)N1CCN(Cc2nc3cc(NC(=O)c4ccccc4C)ccc3n2C)CC1,inactive
14,COC(=O)[C@@H](CC(C)C)N(Cc1ccccc1)S(=O)(=O)N(Cc1ccccc1)[C@@H](CC(C)C)C(=O)OC,active: 12.6 µM and active: 20.6 µM
15,COc1ccc(Cl)cc1NC(=S)NCc1ccco1,inactive
16,CCCN1CNc2c(c(=O)[nH]c(=S)n2CCCc2ccccc2)C1,"inconclusive [inhibitor, single point]"
17,CN(C)S(=O)(=O)c1ccc(NC(=S)NC(=O)c2cccs2)cc1,"inconclusive [inhibitor, partial curve]"
18,Cc1ccc(N2C(=O)c3ccccc3C2C(=O)c2cc(C)ccc2O)cc1 (configuration not stated),"inconclusive [inhibitor, single point]"
19,CCCS(=O)(=O)NC(=O)C1(C)CCCN(C(=O)COc2ccc(Cl)cc2Cl)C1 (configuration not stated),"inconclusive [inhibitor, partial curve, poor fit]"
20,CC1(C(=O)NS(=O)(=O)c2ccc(Cl)cc2)CCN1C(=O)CCc1ccc(Cl)cc1Cl (configuration not stated),"inconclusive [inhibitor, single point]"
21,COc1ccc(NC(=O)CCS(=O)(=O)c2cc3c(cc2Cl)NC(=O)CO3)cc1OC,inactive
